# Residue numbers refer to the chain shown, from its start. No constants are given. Whether binding was seen depends on the method and setting. Binding seen in cells or lysates may run through a third protein. Some results given as binding are weak or reduced against the parent protein; the word gives no strength. For some of these results: Sequences can lack the tags named with a protein.
# The chains behind the UniProt entries cited, without tags or fusion partners.
# UniProt P42858: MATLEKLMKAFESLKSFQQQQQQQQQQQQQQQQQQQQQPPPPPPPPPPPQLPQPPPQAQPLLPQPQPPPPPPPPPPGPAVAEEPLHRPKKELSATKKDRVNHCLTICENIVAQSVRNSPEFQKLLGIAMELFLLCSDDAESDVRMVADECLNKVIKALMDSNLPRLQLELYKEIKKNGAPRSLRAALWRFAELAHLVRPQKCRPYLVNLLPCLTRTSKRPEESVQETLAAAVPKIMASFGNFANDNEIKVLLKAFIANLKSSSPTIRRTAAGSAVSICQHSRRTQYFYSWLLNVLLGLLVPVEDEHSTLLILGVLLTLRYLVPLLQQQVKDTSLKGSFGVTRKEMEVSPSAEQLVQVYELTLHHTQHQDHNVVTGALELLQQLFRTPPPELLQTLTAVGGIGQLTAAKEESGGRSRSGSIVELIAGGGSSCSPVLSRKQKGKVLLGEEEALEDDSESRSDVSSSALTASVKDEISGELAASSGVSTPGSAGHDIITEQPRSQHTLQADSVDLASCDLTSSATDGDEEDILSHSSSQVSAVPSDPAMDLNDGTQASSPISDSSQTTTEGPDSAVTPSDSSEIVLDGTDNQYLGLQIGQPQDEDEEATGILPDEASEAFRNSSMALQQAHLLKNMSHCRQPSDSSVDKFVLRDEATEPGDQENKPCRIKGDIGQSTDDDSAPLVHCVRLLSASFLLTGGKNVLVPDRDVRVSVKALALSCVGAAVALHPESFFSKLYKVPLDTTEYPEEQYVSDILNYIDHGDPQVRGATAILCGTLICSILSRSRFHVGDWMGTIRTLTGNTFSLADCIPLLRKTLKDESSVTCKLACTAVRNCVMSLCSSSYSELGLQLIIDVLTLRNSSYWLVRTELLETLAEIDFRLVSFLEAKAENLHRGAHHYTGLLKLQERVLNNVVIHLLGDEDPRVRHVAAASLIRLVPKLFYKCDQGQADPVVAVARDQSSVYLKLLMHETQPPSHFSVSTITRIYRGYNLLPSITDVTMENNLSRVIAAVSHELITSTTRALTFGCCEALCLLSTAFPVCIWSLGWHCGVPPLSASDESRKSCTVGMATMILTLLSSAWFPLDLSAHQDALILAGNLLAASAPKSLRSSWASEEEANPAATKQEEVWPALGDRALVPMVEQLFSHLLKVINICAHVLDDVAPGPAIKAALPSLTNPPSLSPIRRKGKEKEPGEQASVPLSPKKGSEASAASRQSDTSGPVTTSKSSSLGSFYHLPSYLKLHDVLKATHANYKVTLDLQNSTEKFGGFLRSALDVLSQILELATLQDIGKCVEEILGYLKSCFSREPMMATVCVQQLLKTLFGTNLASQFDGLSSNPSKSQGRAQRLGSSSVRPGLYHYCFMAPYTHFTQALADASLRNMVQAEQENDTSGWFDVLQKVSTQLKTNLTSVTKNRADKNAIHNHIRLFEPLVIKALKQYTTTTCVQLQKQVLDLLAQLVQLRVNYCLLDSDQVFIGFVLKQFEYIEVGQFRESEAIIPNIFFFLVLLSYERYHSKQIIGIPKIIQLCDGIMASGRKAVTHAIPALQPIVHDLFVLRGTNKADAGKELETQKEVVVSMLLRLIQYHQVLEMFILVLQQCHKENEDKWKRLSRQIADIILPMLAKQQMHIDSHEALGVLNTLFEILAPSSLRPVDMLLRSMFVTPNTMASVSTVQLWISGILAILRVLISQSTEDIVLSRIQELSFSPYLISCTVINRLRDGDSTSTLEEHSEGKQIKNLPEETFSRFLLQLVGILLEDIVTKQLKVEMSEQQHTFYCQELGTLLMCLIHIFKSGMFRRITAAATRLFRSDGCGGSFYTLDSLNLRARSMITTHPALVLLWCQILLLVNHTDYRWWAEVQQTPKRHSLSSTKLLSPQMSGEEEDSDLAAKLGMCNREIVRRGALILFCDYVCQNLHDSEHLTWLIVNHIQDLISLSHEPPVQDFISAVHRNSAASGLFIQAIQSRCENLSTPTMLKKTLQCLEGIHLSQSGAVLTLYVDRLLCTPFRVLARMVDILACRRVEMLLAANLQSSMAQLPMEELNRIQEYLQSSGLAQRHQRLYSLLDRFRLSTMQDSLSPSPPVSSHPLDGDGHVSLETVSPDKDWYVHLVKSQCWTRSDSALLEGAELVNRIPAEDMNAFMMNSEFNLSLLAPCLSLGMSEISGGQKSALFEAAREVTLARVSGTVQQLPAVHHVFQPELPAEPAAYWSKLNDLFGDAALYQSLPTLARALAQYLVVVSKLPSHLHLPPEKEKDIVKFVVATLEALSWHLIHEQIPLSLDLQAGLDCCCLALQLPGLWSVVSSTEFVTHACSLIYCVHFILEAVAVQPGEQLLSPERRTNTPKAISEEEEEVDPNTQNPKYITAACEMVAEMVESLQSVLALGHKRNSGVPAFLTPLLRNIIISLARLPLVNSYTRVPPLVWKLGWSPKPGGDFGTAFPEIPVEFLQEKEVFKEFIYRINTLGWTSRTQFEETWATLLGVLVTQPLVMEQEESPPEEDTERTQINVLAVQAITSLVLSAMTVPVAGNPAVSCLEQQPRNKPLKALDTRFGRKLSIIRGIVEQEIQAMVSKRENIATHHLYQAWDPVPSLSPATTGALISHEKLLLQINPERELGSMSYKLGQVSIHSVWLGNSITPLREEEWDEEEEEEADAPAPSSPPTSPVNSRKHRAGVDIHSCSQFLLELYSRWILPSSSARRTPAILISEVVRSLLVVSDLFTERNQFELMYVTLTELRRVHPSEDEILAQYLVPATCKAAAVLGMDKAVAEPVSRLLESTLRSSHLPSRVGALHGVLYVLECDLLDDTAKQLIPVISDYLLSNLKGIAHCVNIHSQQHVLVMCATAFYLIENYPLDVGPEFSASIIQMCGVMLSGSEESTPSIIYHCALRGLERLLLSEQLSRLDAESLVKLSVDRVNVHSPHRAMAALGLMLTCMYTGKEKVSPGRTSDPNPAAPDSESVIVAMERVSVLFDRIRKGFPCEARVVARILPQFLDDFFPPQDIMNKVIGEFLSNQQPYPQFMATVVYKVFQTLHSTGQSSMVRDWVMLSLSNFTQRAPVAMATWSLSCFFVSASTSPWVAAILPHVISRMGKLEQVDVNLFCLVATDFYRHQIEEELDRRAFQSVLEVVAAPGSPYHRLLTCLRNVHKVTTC
# Experiments:
# [1] = molecular target: T1, GFP-SNX21(D48K, D68K) (human) (UniProt Q969T3); test: co-IP; GFP-nanotrap precipitation of GFP-tagged constructs from transiently transfected HEK293-T lysates (50 mM Tris-HCl pH 7.4, 0.5% NP40), 1 h at 4°C; western blot for endogenous Htt and septins
# T1 sequence: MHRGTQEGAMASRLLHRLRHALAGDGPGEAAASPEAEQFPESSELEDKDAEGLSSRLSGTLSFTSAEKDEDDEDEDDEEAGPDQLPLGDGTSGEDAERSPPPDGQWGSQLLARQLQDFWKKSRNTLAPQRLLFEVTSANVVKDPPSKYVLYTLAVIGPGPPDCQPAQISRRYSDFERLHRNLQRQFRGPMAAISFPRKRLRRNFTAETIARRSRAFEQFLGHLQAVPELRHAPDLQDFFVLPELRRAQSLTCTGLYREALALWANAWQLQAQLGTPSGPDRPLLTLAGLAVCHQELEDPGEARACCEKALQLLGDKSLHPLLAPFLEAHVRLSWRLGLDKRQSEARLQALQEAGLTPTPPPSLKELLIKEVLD
# [2] = molecular target: T2, GFP-SNX21 (N-terminal GFP-tagged full-length human sorting nexin-21) (human) (UniProt Q969T3); test: as above
# T2 sequence: T1 sequence with K48D, K68D
# GFP-SNX21(1-129) (human) = molecular target: T3, GFP-SNX21(1-129) (human) (UniProt Q969T3); test: as above
# T3 sequence: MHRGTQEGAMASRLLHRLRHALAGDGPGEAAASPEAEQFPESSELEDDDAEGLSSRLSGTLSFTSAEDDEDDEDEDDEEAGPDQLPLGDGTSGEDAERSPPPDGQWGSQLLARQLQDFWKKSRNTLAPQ
# [3] = molecular target: T4, GFP-SNX20 (GFP-tagged full-length sorting nexin-20) (UniProt Q7Z614); test: as above
# T4 sequence: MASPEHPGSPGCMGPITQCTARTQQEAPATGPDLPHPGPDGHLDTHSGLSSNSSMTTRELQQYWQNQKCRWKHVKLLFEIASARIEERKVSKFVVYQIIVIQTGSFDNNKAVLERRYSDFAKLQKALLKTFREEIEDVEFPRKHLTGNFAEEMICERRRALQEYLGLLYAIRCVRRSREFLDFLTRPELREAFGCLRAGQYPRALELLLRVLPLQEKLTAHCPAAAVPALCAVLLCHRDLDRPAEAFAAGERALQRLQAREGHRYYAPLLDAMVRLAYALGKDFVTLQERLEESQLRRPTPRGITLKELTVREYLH
# GFP-SNX21(K364E) (human) = molecular target: T5, GFP-SNX21(K364E) (human) (UniProt Q969T3); test: as above
# T5 sequence: T1 sequence with K48D, K68D, K364E
# GFP-SNX21(D68K) (human) = molecular target: T6, GFP-SNX21(D68K) (human) (UniProt Q969T3); test: as above
# T6 sequence: T1 sequence with K48D
# [4] = molecular target: T7, endogenous SNX21 (human (endogenous in HEK293-T)) (UniProt Q969T3); test: co-IP; endogenous SNX21 precipitated from HEK293-T lysate with 2 µg anti-SNX21 (rabbit IgG as control) and protein-G agarose, 4°C; western blot for endogenous Htt
# T7 sequence: T1 sequence with K48D, K68D
substance,measurement,setting,value
"huntingtin (Htt), endogenous (from UniProt P42858 1-3142)",binding,[1],binds
same,binding,[2],binds
same,binding,GFP-SNX21(1-129) (human),binds
same,binding,[3],no binding
same,binding,GFP-SNX21(K364E) (human),binds
same,binding,GFP-SNX21(D68K) (human),binds
same,binding,[4],binds

# From publication PMC6140323
